From PMC6073767
Some values that stand alone complete this part of the results.

Assay: confocal colocalisation, AD293
Conditions: glycan lost, control: wild-type Panx2

B1: Panx2: N86Q (protein)
parent chain: MHHLLEQSADMATALLAGEKLRELILPGSQDDKAGALAALLLQLKLELPFDRVVTIGTVLVPILLVTLVFTKNFAEEPIYCYTPHNFTRDQALYARGYCWTELRDALPGVDASLWPSLFEHKFLPYALLAFAAIMYVPALGWEFLASTRLTSELNFLLQEIDNCYHRAAEGRAPKIEKQIQSKGPGITEREKREIIENAEKEKSPEQNLFEKYLERRGRSNFLAKLYLARHVLILLLSVVPISYLCTYYATQKQNEFTCALGASPDGPVGSAGPTVRVSCKLPSVQLQRIIAGVDIVLLCFMNLIILVNLIHLFIFRKSNFIFDKLNKVGIKTRRQWRRSQFCDINILAMFCNENRDHIKSLNRLDFITNESDLMYDNVVRQLLAALAQSNHDTTPTVRDSGIQTVDPSINPAEPDGSAEPPVVKRPRKKMKWIPTSNPLPQPFKEQLAIMRVENSKTEKPKPVRRKTATDTLIAPLLDAGARAAHHYKGSGGDSGPSSAPPAASEKKHTRHFSLDVHPYILGTKKAKTEAVPPALPASRSQEGGFLSQTEECGLGLAAAPTKDAPLPEKEIPYPTEPALPGLPSGGSFHVCSPPAAPAAASLSPGSLGKADPLTILSRNATHPLLHISTLYEAREEEEGGPCAPSDMGDLLSIPPPQQILIATFEEPRTVVSTVEF
localisation_or_trafficking, other: Pearson colocalisation coefficient (colocalisation with ER marker PDI): decreases, 0.34 ± 0.03 vs 0.49 ± 0.02 | localisation_or_trafficking, other: Pearson colocalisation coefficient (colocalisation with Mitotracker mitochondria): no change, −0.13 ± 0.06 vs −0.08 ± 0.03 | localisation_or_trafficking, other: Pearson colocalisation coefficient (colocalisation with cis-Golgi marker GM130): increases, 0.43 ± 0.04 vs 0.23 ± 0.03 | localisation_or_trafficking, other: Pearson colocalisation coefficient (colocalisation with lysosome marker Lamp-2): no change, −0.05 ± 0.02 vs −0.08 ± 0.01
